Results from the supplement of paper PMC3334620.
Over roughly 33,000 sequences, “E-score (-0.5 to 0.5)” has its median near -0.012; the highest 2% begin near 0.27. Some of the results follow.

target: T1, Vhr1 (UniProt P40522); experiment: PBM E-score (8-mer binding enrichment) (E-score (-0.5 to 0.5)); higher = stronger / more preferred TF binding; most listed sequences are background and not binding sites; settings: protein concentration: 200 nM; construct: GST-full length
T1 sequence: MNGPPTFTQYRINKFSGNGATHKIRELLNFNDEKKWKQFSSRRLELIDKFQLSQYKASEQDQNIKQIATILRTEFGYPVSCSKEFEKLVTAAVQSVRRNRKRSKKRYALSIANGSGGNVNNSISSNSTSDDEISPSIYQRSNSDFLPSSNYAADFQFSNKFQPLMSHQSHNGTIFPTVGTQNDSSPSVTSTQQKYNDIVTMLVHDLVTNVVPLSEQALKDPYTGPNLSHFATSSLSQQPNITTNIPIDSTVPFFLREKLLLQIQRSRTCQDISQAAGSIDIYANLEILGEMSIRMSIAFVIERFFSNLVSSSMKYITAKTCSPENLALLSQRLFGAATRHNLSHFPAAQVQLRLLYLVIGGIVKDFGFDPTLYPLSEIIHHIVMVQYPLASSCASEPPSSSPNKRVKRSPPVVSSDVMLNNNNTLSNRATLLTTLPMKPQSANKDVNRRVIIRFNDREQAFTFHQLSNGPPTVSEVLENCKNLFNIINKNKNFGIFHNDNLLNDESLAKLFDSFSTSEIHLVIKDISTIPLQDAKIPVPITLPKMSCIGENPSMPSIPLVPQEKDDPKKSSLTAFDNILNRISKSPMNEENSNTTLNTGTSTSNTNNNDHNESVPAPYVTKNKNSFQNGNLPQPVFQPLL
Outline: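 Masliner-normalised scans of fluorescent anti-GST signal were the basis for scoring. That signal came from GST-tagged yeast transcription factors applied at about 100-200 nM to double-stranded universal all-10-mer Agilent arrays on fresh or once-stripped slides. Each ungapped eight-base word, pooled with its reverse complement, received an E-score from the Universal PBM Analysis Suite.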

| Sequence | PBM E-score |
| --- | --- |
| GATCGGAC | -0.0753 |
| ATATGCAC | 0.174 |
| AGGTGGTC | 0.0319 |
| GTTACCCA | 0.135 |
| ACATGTAG | 0.148 |
| GCCTGGAA | 0.0664 |
| ATATAGCA | 0.166 |
| ACACGCGG | 0.165 |
| GCTACACC | 0.0574 |
| CAAACCAA | 0.125 |
| GGCTGATA | 0.129 |
| AGGAGCGC | -0.17 |
| ACGAGCGG | 0.0726 |
| GTACGGAC | 0.135 |
| GAATTACC | -0.0496 |
| GGCTGCCC | -0.109 |
| ATCGTGGC | 0.0224 |
| TGCAAAAA | -0.207 |
| GGGGATTA | 0.0356 |
| ATTTCTCG | 0.119 |
| CCGGTTGA | 0.0709 |
| CGAGTATC | -0.0336 |
| GCGCCAGC | -0.00609 |
| ACAGGGGG | -0.0353 |
| AAATGGAT | -0.0084 |

| Sequence | PBM E-score |
| --- | --- |
| ATCCCGGA | 0.0474 |
| CAACCAGC | 0.0712 |
| AGGTGGAG | -0.191 |
| CGATGCGA | -0.0418 |
| GAAACAAA | -0.0509 |
| CTAGCTAG | -0.041 |
| ACTTTCGC | -0.222 |
| AACCAGGT | 0.00882 |
| AGGGCCGC | -0.279 |
| GAAGTTCA | -0.262 |
| AACCGCGC | 0.162 |
| AATAGCAT | -0.00071 |
| AGCTCTGA | -0.119 |
| AGACGACC | 0.0506 |
| AAAGAAAG | -0.211 |
| AGCGACCT | -0.0531 |
| GCTAGTCC | -0.158 |
| AATTCTCA | -0.164 |
| GCCTTATA | -0.0741 |
| AATGATCT | 0.189 |
| CGGATGGA | -0.029 |
| ACAACTCG | 0.0362 |
| ATCGAACC | 0.0716 |
| ACAGTACC | -0.0791 |
| CCAAAAGC | -0.257 |

| Sequence | PBM E-score |
| --- | --- |
| CAGGCATC | 0.0171 |
| AGCATACC | 0.0407 |
| AGGATTAT | -0.164 |
| CACAGTCA | 0.244 |
| ACGTACCC | -0.00016 |
| CGTTTCAG | -0.0522 |
| AGCATGAG | 0.214 |
| CATTTACC | -0.0302 |
| CGTCAAAG | -0.137 |
| CCTTATAA | -0.0239 |
| TCAGCGGA | 0.204 |
| GTGTGGGA | -0.0315 |
| CATTCATC | 0.00286 |
| CGAAAACG | -0.0998 |
| AATATGTG | 0.231 |
| TACAAAAA | -0.0714 |
| AACATTAG | -0.144 |
| CGGGCCGC | 0.066 |
| AGCAGGCG | -0.00605 |
| GACGTTGA | -0.00553 |
| GCACAGGC | -0.0644 |
| CAGACGGC | -0.0191 |
| ATAAGACG | -0.187 |
| ACCGCGCG | 0.336 |
| TATCCTGA | 0.0793 |

| Sequence | PBM E-score |
| --- | --- |
| ATTACCAG | 0.0341 |
| ACATCTCA | -0.136 |
| TTCTAGAA | -0.133 |
| ACAACTGG | -0.0138 |
| ACGGGTCC | -0.127 |
| CGTCACAC | -0.021 |
| CCCTCCAC | -0.00309 |
| CAGCAGGG | 0.0475 |
| GATATCCA | 0.116 |
| ATCAAAAA | 0.0258 |
| CGTGACTC | 0.472 |
| CGGGCTAC | -0.197 |
| AGCTTTTA | -0.184 |
| CTAACTGA | 0.0377 |
| GATCAATA | -0.0202 |
| CGTCCACG | -0.151 |
| CAAGTAGC | -0.237 |
| ATAATTCG | -0.0653 |
| CGAGATAC | 0.123 |
| GTGGTCAA | 0.0128 |
| GAAATACA | -0.205 |
| AAGAAGAG | -0.151 |
| CTCTGGGA | -0.187 |
| AGTCCACC | 0.213 |
| AGTGGGCA | 0.0205 |

| Sequence | PBM E-score |
| --- | --- |
| ACCATGGA | 0.0266 |
| GCGTGGAC | -0.205 |
| CGTGTCTA | 0.124 |
| GCGACGCA | -0.107 |
| TGTACTAA | -0.0497 |
| ACGCGAAC | -0.0904 |
| CGGTGCAA | -0.126 |
| TGCCGCAA | -0.0274 |
| CTCACCAG | 0.258 |
| ACCAAGTC | -0.0372 |
| CCCCGACA | -0.0336 |
| AATTCCGT | -0.0981 |
| CAATTCAC | -0.124 |
| TGAGCACA | 0.0663 |
| ACGTACCT | -0.104 |
| CCTCACGC | 0.0696 |
| ACGCATGA | 0.249 |
| CTCAGCTA | -0.159 |
| AGAAACTA | -0.165 |
| TATGAGAA | -0.0101 |
| AGGAACAT | -0.0758 |
| CGTTATTC | 0.0744 |
| AGCATGTA | -0.116 |
| GCTGAGAA | 0.00573 |
| CTTATGAC | 0.0571 |

| Sequence | PBM E-score |
| --- | --- |
| GAATTCGA | -0.135 |
| ATAGAGAG | -0.248 |
| TGTTGCAA | 0.172 |
| TATGAGCA | 0.11 |
| GGTATACC | 0.126 |
| CACCGAGC | 0.249 |
| GGGGACCA | 0.167 |
| AGTGTTCC | -0.0468 |
| CCATGCAC | 0.0697 |
| ACTTTTCC | -0.00919 |
| AAAGCGGC | -0.212 |
| CTCTCTTA | -0.144 |
| CGAAGTTA | -0.0266 |
| ACTTTAAA | -0.0302 |
| AGACGTGG | -0.00569 |
| AGTGCTCA | 0.014 |
| ACCGAGGT | -0.0505 |
| CGAATAAC | 0.0152 |
| GTGTTCAA | -0.0451 |
| GAGCCAGC | 0.091 |
| CCTCACCG | 0.113 |
| CCCCCGAC | -0.0669 |
| AATCCTGT | 0.0793 |
| CAAGCTCA | -0.0515 |
| AGCGGTGG | -0.151 |

| Sequence | PBM E-score |
| --- | --- |
| CGATTATA | -0.0548 |
| AAGTCCTC | -0.079 |
| ATGACGCG | 0.162 |
| CTCACTTA | 0.145 |
| CGCCCTAG | 0.0143 |
| CACGTGGA | 0.0456 |
| AACTGTCC | -0.0925 |
| CTCGTAAA | -0.22 |
| CATGTTTC | 0.155 |
| TGATTGAA | 0.18 |
| AGGCCCGA | -0.0896 |
| ATTTATCA | 0.165 |
| ACGAAAGA | -0.0866 |
| CCCGGCAG | -0.0362 |
| CAAGGATC | -0.0321 |
| ACTAGATC | -0.0743 |
| ATGCGTGG | -0.0769 |
| ACCTAACG | -0.0921 |
| ATCCGTGA | 0.0715 |
| ATCTAAGG | -0.141 |
| GACCTCGA | 0.0768 |
| TTGAACAA | -0.106 |
| AAAGTGTA | -0.0832 |
| TCGCTTAA | -0.0577 |
| AGACCGTA | -0.194 |

| Sequence | PBM E-score |
| --- | --- |
| CCCGCGAC | 0.193 |
| AGTTAGCG | 0.0107 |
| GAGCGGCA | -0.0343 |
| CAAGCCCC | -0.067 |
| CAGTGACA | 0.00649 |
| ATATAAAT | 0.106 |
| AACCCAAA | -0.158 |
| ACTAGCTG | 0.217 |
| GGACTCAA | 0.143 |
| ATAACGAG | -0.147 |
| GGAACGCA | -0.095 |
| CACTTAGA | -0.117 |
| GTAACAGA | 0.182 |
| CGTTACAA | -0.0675 |
| GTGCTGAA | 0.0433 |
| GTCCCGAC | 0.143 |
| ACCGACGA | 0.127 |
| CTATCCTC | -0.121 |
| ATATCGGC | -0.047 |
| TACCAGTA | 0.0965 |
| GGAAGTAC | -0.0604 |
| ACCGCGGT | 0.0486 |
| CCCTTCCG | -0.175 |
| ATATATCC | 0.273 |
| AGGTAGAT | -0.0719 |

| Sequence | PBM E-score |
| --- | --- |
| CATTAGGA | -0.0276 |
| GGGTGGAA | -0.104 |
| GGTCGTAC | 0.0468 |
| TATTAAAA | 0.129 |
| GAAGACTC | 0.229 |
| AAAAGATG | -0.0941 |
| CAGAACCA | -0.0201 |
| CCGAGATC | 0.0839 |
| GATCGTAA | -0.174 |
| AACGCGAT | -0.121 |
| ATTAGAAT | 0.0307 |
| CGCCAGAG | -0.0444 |
| CTGCAAAA | -0.203 |
| ACGCATTG | -0.113 |
| ATTACAGC | -0.00665 |
| GACGTCGC | -0.0779 |
| CATGGGCC | 0.102 |
| CCCAACTC | 0.134 |
| CAAGGTTC | -0.238 |
